PMC4336329 (PLoS ONE, 2015)
Screen size: about 310,000 compounds; about 14,000 (4.5%) showed an effect of 50% or more. The effect is printed as a negative number. This is one part of the list.

Molecular target: human ether-à-go-go-related gene (hERG) potassium channel (human, UniProt Q12809)
Experiment: primary screen, population patch clamp on CHO cells stably expressing hERG
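Note: peak tail current of the secondary pulse compared with the same well before compound.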

Sequence of human ether-à-go-go-related gene (hERG) potassium channel (Q12809 whole entry, looked up): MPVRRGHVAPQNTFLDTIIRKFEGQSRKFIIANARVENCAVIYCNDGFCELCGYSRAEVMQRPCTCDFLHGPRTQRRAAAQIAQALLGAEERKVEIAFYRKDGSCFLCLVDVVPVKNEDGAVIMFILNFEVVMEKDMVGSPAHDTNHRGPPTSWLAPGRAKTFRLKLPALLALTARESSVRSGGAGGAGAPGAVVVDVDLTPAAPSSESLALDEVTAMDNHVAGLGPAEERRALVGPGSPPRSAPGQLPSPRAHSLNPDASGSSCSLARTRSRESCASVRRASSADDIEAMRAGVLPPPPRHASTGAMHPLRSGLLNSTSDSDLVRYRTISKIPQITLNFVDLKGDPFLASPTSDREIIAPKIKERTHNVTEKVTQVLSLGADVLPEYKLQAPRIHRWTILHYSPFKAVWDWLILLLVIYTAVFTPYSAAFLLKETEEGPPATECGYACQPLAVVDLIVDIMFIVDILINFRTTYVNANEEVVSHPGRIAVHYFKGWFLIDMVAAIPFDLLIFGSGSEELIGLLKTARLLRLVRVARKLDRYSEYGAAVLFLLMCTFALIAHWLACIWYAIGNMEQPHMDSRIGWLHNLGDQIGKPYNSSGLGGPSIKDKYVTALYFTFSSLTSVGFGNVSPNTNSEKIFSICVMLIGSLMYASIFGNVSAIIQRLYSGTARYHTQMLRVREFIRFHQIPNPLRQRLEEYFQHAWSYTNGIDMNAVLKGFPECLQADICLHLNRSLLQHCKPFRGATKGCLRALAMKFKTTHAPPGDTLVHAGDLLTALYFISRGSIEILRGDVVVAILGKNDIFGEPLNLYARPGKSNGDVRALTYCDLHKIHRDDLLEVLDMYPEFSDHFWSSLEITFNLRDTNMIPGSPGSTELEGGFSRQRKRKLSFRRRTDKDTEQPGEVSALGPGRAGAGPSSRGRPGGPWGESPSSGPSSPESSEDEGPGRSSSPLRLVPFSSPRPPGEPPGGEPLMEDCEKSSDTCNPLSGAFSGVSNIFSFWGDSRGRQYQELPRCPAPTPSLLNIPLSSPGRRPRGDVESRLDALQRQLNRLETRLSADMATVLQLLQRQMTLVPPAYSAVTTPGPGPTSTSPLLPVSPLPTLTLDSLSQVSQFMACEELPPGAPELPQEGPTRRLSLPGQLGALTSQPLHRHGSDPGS

Row | SMILES | hERG current change (%, negative = inhibition) at 10uM [%]
1 | COC(=O)CN(C#N)c1nc(NC(C)C)nc(OC)n1 | 0.361
2 | COc1ccc(CC(=O)NCC(=O)N=Nc2c(O)[nH]c3ccccc23)cc1 | 10.8
3 | Cc1ccc(CNC(=O)CN(C(=O)C2(C)CC(=O)N=C3C=CC=CN32)c2ccc(F)cc2)cc1 (stereo not shown) | 19.6
4 | O=C(O)/C=C/C(=O)Nc1ccc(SC(F)(F)F)cc1 | 15
5 | O=C1NC(=O)C(CCc2ccncc2)(CCc2ccncc2)C(=O)N1CCc1ccc(F)cc1 | -68.5
6 | COC(=O)Nc1sc(C(=O)N(C)C)c(C)c1C(=O)OC | 6.87
7 | CC(C)Cc1cc(C(=O)Nc2ccccc2)c2ccccc2n1 | -2.99
8 | Cc1ccc(S(=O)(=O)N/N=C2/CC(c3ccccc3)Oc3ccccc32)cc1 (stereo not shown) | -19
9 | COc1cc(/C=C/C(=O)OCC(=O)N2CC(=O)Nc3ccccc32)ccc1O | -6.14
10 | COC1C/C(=N\O)C2OC(c3ccccc3)OCC2O1 (stereo not shown) | 2.38
11 | Cc1cc(C)c(NC2=CC(=O)CC(C)(C)C2)c(C#N)c1.Cl | -31.2
12 | O=C(N/N=C/c1cccc(Cl)c1)c1c(O)c2c([nH]c1=O)CCCC2 | -9.64
13 | Cc1cccc(NC(=S)NNC(=S)NCc2ccccc2)c1 | 9.96
14 | Cc1cccc(C)c1NC(=O)CNC(=O)c1ccccc1OCc1ccccc1 | -3.01
15 | COc1ccccc1NC(=O)C1CCCN1S(=O)(=O)c1cccc2nsnc12 (stereo not shown) | -4.13
16 | CCOC(=O)C1=C(C)N=c2s/c(=C\c3cccn3C)c(=O)n2C1c1cccc(OC)c1OC (stereo not shown) | 4.74
17 | CC(=O)c1ccc(OCC(=O)N2CCN(S(=O)(=O)c3ccc(C)cc3C)CC2)cc1 | -61.6
18 | Cc1cc(NC(=S)Nc2ccccc2)ccc1Br | -24
19 | O=C(O)Cn1cnc2c(oc3ccccc32)c1=O | 15.6
20 | Cc1ccc2c(c1)-c1c(ssc1=S)C(C)(C)N2C(=O)CSC1=NCCS1 | 4.27
21 | O=C(O)c1ccc(NC2CC(=O)N(Cc3ccccc3)C2=O)cc1 (stereo not shown) | 22.2
22 | COc1ccc(S(=O)(=O)N2CCOC2CNC(=O)C(=O)NCc2ccncc2)cc1C (stereo not shown) | -9.1

Row | SMILES | hERG current change (%, negative = inhibition) at 10uM [%]
23 | CC(C)C1=NN(C(=O)c2cccnc2)C(O)(C(F)(F)F)C1 (stereo not shown) | -13
24 | O=S(=O)(Cc1ccccc1)NCc1ccccn1 | 0.348
25 | COc1ccc(S(=O)(=O)N2CCC(C(=O)Nc3ccccc3N3CCCCC3)CC2)cc1OC | 3.04
26 | O=C(CN1CCOCC1)Nc1ccc2c(c1)OCCO2.O=C(O)C(=O)O | 15
27 | O=S(=O)(NCc1cccnc1)c1ccc(Br)s1 | -1.75
28 | COc1ccc(C(CNC(=O)COc2ccccc2)N2CCCCC2)cc1 (stereo not shown) | -29.3
29 | C[C@]12CCC[C@H](O1)c1c(cc3c(c1O)C(=O)c1c(O)cc(O)cc1C3=O)O2 | 2.86
30 | CC(=O)c1ccc(NC(=O)c2cc(Cl)nc3ccccc23)cc1 | 6.45
31 | CCNC(=O)Nn1c(-c2ccccc2)nc2ccccc2c1=O | 22.9
32 | O=C(O)[C@@H]1[C@@H]2C[C@@H]2CN1c1ncccc1[N+](=O)[O-] | 27.1
33 | C=CCNc1nc(N)c([N+](=O)[O-])c(Nc2ccccc2OC)n1 | 7.01
34 | CCN(Cc1nc2ccccc2c(=O)[nH]1)C(=O)C1CC(=O)N(c2cccc3ccccc23)C1 (stereo not shown) | -5.69
35 | O=C(c1ccc(OC2CCN(Cc3ccc(C(F)(F)F)cc3)CC2)cc1)N1CCCCC1 | -57.2
36 | Cc1cc(NC(=O)c2cnn3cccnc23)n(-c2ccccc2)n1 | -61.8
37 | CCOC(Cn1c(CCCO)nc2ccccc21)OCC | -7.25
38 | Cc1c(C(=O)N2CCC3(CC2)CC(=O)c2ccccc2O3)cccc1[N+](=O)[O-] | -83.2
39 | COCCNC(=O)CN(C(=O)CCC(=O)Nc1ccccn1)c1ccc(C)cc1 | 8.38
40 | O=C(O)CSc1nnc(CNc2ccc(F)cc2)n1-c1ccccc1 | 10.9
41 | Cc1cccc(NC2=NC(=S)N(CC#N)C23CCCCC3)c1 | -5.44
42 | CCOc1ccccc1CNC(=O)C1CCN(C(=O)N2CC(C)Oc3ccc(C)cc32)CC1 (stereo not shown) | -14.9
43 | COc1ccccc1C(=O)OCCN1CCOCC1.Cl | -3.64
